Data from PubChem BioAssay (NCI).
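96-well plates; 48 h exposure; 5 concentrations. Endpoints by linear interpolation between flanking doses. Not reached: highest tested concentration assigned. GI50 is the concentration that inhibits growth by half. TGI: total growth inhibition.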

Test system: NCI-H322M lung
Assay: inhibition of tumour cell growth, NCI panel, 48 h

In the case of `CN1CCN(c2ccc(C(=O)/C=C/c3ccc(Br)cc3)cc2)CC1`, the GI50 is reported as > 100 µM and the TGI is reported as > 100 µM.
